Measured values reported in PMC10983669.
No constants are given. Whether binding was seen depends on the method and setting. Some results given as binding are weak or reduced against the parent protein; the word gives no strength.

Columns and labels:
Assay in all cases: two-hybrid; fragments of dCTCF fused to GAL4 DNA-binding (pGBT9) or activation (pGAD424) domain in S. cerevisiae PJ69-4A; growth on medium lacking tryptophan, leucine, histidine and adenine at 30 °C, assessed after 3 days; repeated three times
dCTCF 1–170 (Drosophila) = target: T1, dCTCF 1–170 (Drosophila) (UniProt Q9VS55)
T1 sequence: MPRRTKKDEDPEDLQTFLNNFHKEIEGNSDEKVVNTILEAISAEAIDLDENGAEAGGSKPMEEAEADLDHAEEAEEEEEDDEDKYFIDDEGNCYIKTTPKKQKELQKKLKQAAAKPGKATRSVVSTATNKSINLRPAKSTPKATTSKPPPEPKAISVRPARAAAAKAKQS

dCTCF 1–132 (Drosophila) = dCTCF 1–132 (Drosophila) (UniProt Q9VS55)
dCTCF 1–90 (Drosophila) = dCTCF 1–90 (Drosophila) (UniProt Q9VS55)

B1: dCTCF 1–132 (domain or fragment, UniProt Q9VS55 1-132)
chain: MPRRTKKDEDPEDLQTFLNNFHKEIEGNSDEKVVNTILEAISAEAIDLDENGAEAGGSKPMEEAEADLDHAEEAEEEEEDDEDKYFIDDEGNCYIKTTPKKQKELQKKLKQAAAKPGKATRSVVSTATNKSI
binding (dCTCF 1–170 (Drosophila)): binds | binding (dCTCF 1–132 (Drosophila)): no binding

B2: dCTCF 1–170 (domain or fragment, UniProt Q9VS55 1-170)
chain: T1 sequence
binding (dCTCF 1–170 (Drosophila)): binds

B3: dCTCF 1–90 (domain or fragment, UniProt Q9VS55 1-90)
chain: MPRRTKKDEDPEDLQTFLNNFHKEIEGNSDEKVVNTILEAISAEAIDLDENGAEAGGSKPMEEAEADLDHAEEAEEEEEDDEDKYFIDDE
binding (dCTCF 1–90 (Drosophila)): no binding | binding (dCTCF 1–170 (Drosophila)): no binding
